From PubChem BioAssay AID588795 (National Center for Advancing Translational Sciences (NCATS), 2011)
“And” between values parts separate entries of the source, which are not always exact repeats. Identical values can stand only once. Screen size: about 390,000 compounds; about 1,400 (0.36%) were called active. The shares of active, inactive and inconclusive entries below differ from those in the screen. Calls follow the shape of the dose curve; as a rule, active = well fitted inhibition curve with a large enough effect; inconclusive = small, poorly fitted or top-dose-only effect; inactive = no such curve, though single readings can be large or run the other way. Potencies of inconclusive entries are doubtful fits and often do not repeat.

Each compound was assayed against Flap endonuclease 1 (Homo sapiens) (UniProt P39748) (assay: qHTS Assay for the Inhibitors of Human Flap endonuclease 1 (FEN1).). Conditions: Recombinant FEN1 flap cleavage, fluorescence, 15 min; series mostly up to 114 µM; activity change, negative = inhibition: at the top concentration.
UniProt P39748, sequence (P39748 whole entry, looked up): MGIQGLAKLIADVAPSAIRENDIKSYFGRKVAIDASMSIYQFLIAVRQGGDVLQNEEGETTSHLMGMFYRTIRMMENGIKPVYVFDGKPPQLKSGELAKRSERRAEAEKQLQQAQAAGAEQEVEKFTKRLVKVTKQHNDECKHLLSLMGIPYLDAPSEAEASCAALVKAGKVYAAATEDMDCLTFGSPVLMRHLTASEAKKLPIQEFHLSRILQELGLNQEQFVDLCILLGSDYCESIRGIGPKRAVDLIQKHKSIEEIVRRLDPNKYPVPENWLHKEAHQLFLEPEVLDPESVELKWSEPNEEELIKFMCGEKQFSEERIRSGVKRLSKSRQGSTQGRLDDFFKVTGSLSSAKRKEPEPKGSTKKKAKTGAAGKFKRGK
In short: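 Steps: FEN1 (10 nM) dispensed; compound added by pin tool; 15 min at room temperature; substrate added to 50 nM final; reads at 0 min and 15 min; data normalized and fitted (four-parameter Hill).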
% is scaled to controls: 0 for no effect and ±100 for the full control effect; potency is read from the fitted curve at half-maximal effect; tags tell the direction and shape of the fitted curve.
Also: nearly all actives have a fitted effect of over 65% in size.

Compound | Potency | activity change, negative = inhibition
CCC(=O)OC1(C)C(=O)C=C2C=C(CCCC(=O)OC)OC=C2C1=O (stereo not given) | inconclusive: 50.1 µM [inhibitor, partial curve] | –
CCOC(=O)C1=C(C)N(c2ccc(C)cc2)C(=O)/C1=C\c1ccc(O)c(OC)c1 | inconclusive: 89.1 µM [inhibitor, single point] | –
CN(C)C=Nc1ccc2nc3c(cc2c1)[nH]c1ccccc13 | inconclusive: 15.8 µM [inhibitor, full curve, poor fit] | –
CCn1c2ccccc2c2cc(NC(=O)COC(=O)c3ccc(NC(=O)CC#N)cc3)ccc21 | inconclusive: 100 µM [inhibitor, single point] | –
Fc1cc(F)c2nc(Nc3nc4cc5c(cc4s3)OCO5)sc2c1 | inconclusive: 56.2 µM [inhibitor, partial curve, poor fit] | –
COc1ccc(CCNC(=O)c2cc3c(-c4ccc(OC)c(OC)c4)nn(C)c3s2)cc1OC | inconclusive: 20 µM [inhibitor, full curve] | –
C(#Cc1ccccc1)C[N+]1(CC#Cc2cccc3ccccc23)CCOCC1 | inconclusive: 56.2 µM [inhibitor, partial curve, poor fit] | –
O=C(O)c1cc(-c2ccc(/C=C3\NC(=O)N(c4ccccc4)C3=O)o2)ccc1Cl | inconclusive: 35.5 µM [inhibitor, partial curve] | –
COc1ccc2nc(NC(=O)CSc3ccccc3)sc2c1 | inconclusive: 70.8 µM [inhibitor, partial curve, poor fit] | –
Cc1ccsc1/C=N/NC(=O)C(N)=O | active: 15.8 µM | –
CC1=Nc2ccccc2/C1=C\c1nc(-c2ccc(F)cc2)oc1O | active: 70.8 µM | –
O=S(=O)(NCc1ccccc1)c1ccc(Br)c2nsnc12 | inconclusive: 89.1 µM [inhibitor, partial curve, poor fit] | –
N#CC(C#N)=C1C=C2C=C(N3CCCCCC3)CCC2CC1 (stereo not given) | inconclusive: 20 µM [inhibitor, full curve] | –
Cc1cc(NC(=O)CN2CCCCCCC2)no1 | – | inactive: -0.339%
O=C(O)c1cc2ccccc2c(Cc2c(O)c(C(=O)O)cc3ccccc23)c1O | active: 31.6 µM | –
c1ccc2c(c1)C(=Nn1cnnc1)c1ccccc1-2 | inconclusive: 39.8 µM [inhibitor, full curve] | –
COc1ccc(-c2oc3cc(OC)c(O)c(OC)c3c(=O)c2OC)cc1O | inconclusive: 44.7 µM [inhibitor, partial curve, poor fit] | –
COc1ccc(NC(=O)COC(=O)c2ccc([N+](=O)[O-])o2)cc1Cl | inconclusive: 20 µM [inhibitor, full curve] | –
COc1cc(O)c(C(CC(=O)N2CCOCC2)c2cc(OC)c(OC)c(OC)c2)c(OC)c1 (stereo not given) | inconclusive: 100 µM [inhibitor, partial curve, poor fit] | –
CN1CCc2[nH]c3ccc(C(=O)NN)cc3c2C1 | inconclusive: 89.1 µM [inhibitor, partial curve, poor fit] | –
O=C(C1CCCN(S(=O)(=O)c2ccccc2[N+](=O)[O-])C1)N1CCN(c2ccccc2)CC1 (stereo not given) | inconclusive: 89.1 µM [inhibitor, partial curve, poor fit] | –
Cc1cc(C(=O)OCCN2C(=O)c3ccccc3C2=O)c2ccccc2n1 | inconclusive: 50.1 µM [inhibitor, partial curve] | –

Compound | Potency | activity change, negative = inhibition
Cc1ccc(-n2[nH]c(C)c(/C=N/c3cccc(C)n3)c2=O)cc1 | inconclusive: 22.4 µM [inhibitor, full curve, poor fit] | –
CC(C)OC(=O)CSc1nnc2c3ccccc3n(C)c2n1 | – | inactive: -9.14%
Cc1ccc2nc(Cl)c3cc(C(=O)NCCCN4CCCC4)sc3c2c1 | active: 22.4 µM | –
Cc1ccc(C2CC(=O)N3CN(c4ccc(Br)cc4)CSC3=C2C#N)o1 (stereo not given) | – | inactive: -7.24%
CCOC(=O)c1c(NC(=O)CCC(=O)O)sc2c1CCCCC2 | – | inactive: -8.98%
N#CC1=C2SCN(C3CCCCC3)CN2C(=O)CC1c1ccc(Br)cc1 (stereo not given) | inconclusive: 14.1 µM [inhibitor, partial curve, poor fit] | –
Cc1ccc(-n2nc3c(N4CCC(C(=O)NCc5ccc(C)o5)CC4)nnc(C)c3c2C)cc1 | inconclusive: 89.1 µM [inhibitor, single point] | –
CCn1c(SCc2nc3ccccc3s2)nc2cc(S(=O)(=O)N3CCOCC3)ccc21 | inconclusive: 50.1 µM [inhibitor, partial curve, poor fit] | –
COc1cc2nc(N3CCCCC3)nc(NC(C)C)c2cc1OC | inconclusive: 44.7 µM [inhibitor, partial curve] | –
CN(CC(=O)Nc1cccc(F)c1)C(=O)c1cc(-c2ccco2)nc2ccccc12 | inconclusive: 79.4 µM [inhibitor, partial curve] | –
Cc1cccc(COCC(CC(C)C)N2CCN(C(=O)c3ccc(C(C)(C)C)cc3)CCC2=O)c1 (stereo not given) | inconclusive: 50.1 µM [inhibitor, partial curve, poor fit] | –
Nc1nonc1C(=Nc1ccc(Br)cc1)NO | – | inactive: -9.63%
Cc1[nH]n(-c2ccccc2)c(=O)c1C(c1ccccc1[N+](=O)[O-])C(C#N)C#N (stereo not given) | – | inactive: -0.499%
CN1CCN(C2CCN(Cc3ccc(O)c4ncccc34)CC2)CC1 | inconclusive: 11.2 µM [inhibitor, full curve, poor fit] | –
CNc1ccc(/C=C/c2ccnc3ccccc23)cc1 | – | inactive: -35.2%
N#C/C(=C\c1ccc(O)c(O)c1)C(=O)N1CCc2ccccc21 | inconclusive: 3.16 µM [inhibitor, full curve, poor fit] | –
CCc1ccc(CN(C)C(=O)c2cc(COc3cccc4cnccc34)on2)cc1 | inconclusive: 35.5 µM [inhibitor, partial curve, poor fit] | –
COCCNC(=S)N(CCc1c(C)[nH]c2ccc(F)cc12)Cc1cccs1 | inconclusive: 89.1 µM [inhibitor, partial curve, poor fit] | –
Cc1cc(N2CCN(c3ccccc3F)CC2)nc2cc(O)ccc12 | – | inactive: -6.41%
CC(=O)Nc1c(C)nn(-c2ccccc2)c1N1CCC(C(=O)NCc2cccc(Cl)c2)CC1 | – | inactive: -8%
O=C(COC(=O)c1ccc([N+](=O)[O-])o1)NC1CCCc2ccccc21 (stereo not given) | inconclusive: 22.4 µM [inhibitor, full curve] | –
Cn1c(N)c(C(=O)CSc2ccccn2)c(=O)n(C)c1=O | inconclusive: 39.8 µM [inhibitor, single point] | –

Compound | Potency | activity change, negative = inhibition
OCC[n+]1ccc(/C=C/c2c[nH]c3ccccc23)cc1 | inconclusive: 89.1 µM [inhibitor, single point] | –
CCc1ccc(NC(=O)CSc2ccc3nc(-c4ccc(OC)cc4)cn3n2)cc1 | – | inactive: -14.2%
COc1ccc(NC(=O)c2ccc(-c3ccc(-c4noc(C)n4)cc3C)cc2)cc1N1CCN(C)CC1 | inconclusive: 44.7 µM [inhibitor, partial curve, poor fit] and inconclusive: 50.1 µM [inhibitor, partial curve] | –
COc1ccc(CNC(=O)CCc2c(C)c3cc4c(C)c(C)oc4cc3oc2=O)cc1 | – | inactive: -8.34%
COc1ccc(CN(Cc2cccn2C)S(=O)(=O)c2ccc(F)cc2)cc1 | inconclusive: 79.4 µM [inhibitor, partial curve, poor fit] | –
O=C(O)c1ccc(/C=N/NC(=O)c2cc3ccccc3cc2O)cc1 | inconclusive: 56.2 µM [inhibitor, partial curve, poor fit] | –
O=C(Nc1ccccc1C(F)(F)F)c1nc(S(=O)(=O)Cc2ccccc2F)ncc1Cl | – | inactive: -25%
CN(C)c1ccc(C=Nc2ccc(N(C)C)cc2)cc1 | – | inactive: -20.3%
Cc1noc(C)c1COc1ccc(C(=O)Nc2cccnc2)cc1 | – | inactive: -4.23%
O=C(Oc1c(Cl)cc(Cl)c2cccnc12)c1ccco1 | inconclusive: 56.2 µM [inhibitor, partial curve] | –
CCOC(=O)CNc1c(-c2ccc(OC)cc2)nc2ccc(Cl)cn12 | inconclusive: 89.1 µM [inhibitor, partial curve, poor fit] | –
CCOC(=O)C1CCNC(=O)C1=O (stereo not given) | active: 20 µM | –
CCOCCCn1c(C)nc2c(c1=O)c1nc3ccccc3nc1n2CCC1=CCCCC1 | inconclusive: 56.2 µM [inhibitor, partial curve, poor fit] | –
COc1cc(/C=C2\SC(c3ccc(C)cc3)=NC2=O)cc(OC)c1O | inconclusive: 79.4 µM [inhibitor, partial curve] | –
O=C(NCc1ccccc1)C1=C[C@H](c2ccc(C(F)(F)F)cc2)C[C@H](OCCCCO)O1 | inconclusive: 28.2 µM [inhibitor, partial curve, poor fit] | –
Cc1ccccc1C(=O)Nc1ccccc1OCc1cc(=O)n2ccccc2n1 | – | inactive: -8.69%
Cc1cccc(Cn2cc(/C=C(/C#N)C(=O)Nc3cccc(Cl)c3)c3ccccc32)c1 | inconclusive: 79.4 µM [inhibitor, partial curve, poor fit] | –
CCOC(=O)[C@H]1[C@H]2COc3ccc(OC)cc3[C@@H]2N2C(=O)CN(CCc3c[nH]c4ccccc34)C(=O)[C@@]12C | inconclusive: 89.1 µM [inhibitor, partial curve, poor fit] | –
O=C(CSc1nc(-c2ccccc2)nc2ccc(F)cc12)Nc1ccc(C(=O)O)cc1 | inconclusive: 44.7 µM [inhibitor, partial curve] | –
Cc1cc(C=O)c(C)n1-c1cc(C(=O)O)cc(C(=O)O)c1 | inconclusive: 44.7 µM [inhibitor, partial curve, poor fit] | –
Cc1cc(NS(=O)(=O)c2ccc(NC(=O)/C=C/c3ccc(C)o3)cc2)nc(C)n1 | inconclusive: 89.1 µM [inhibitor, single point] | –
